Results taken from PubChem BioAssay AID686978 (National Center for Advancing Translational Sciences (NCATS), 2013).
Among all 420,000 compounds or so, about 64,000 (15%) were called active. This list was built around the results that the source calls inconclusive (neither active nor inactive); the mix of calls is not that of the screen. Calls follow the shape of the dose curve; as a rule, active = well fitted inhibition curve with a large enough effect; inconclusive = small, poorly fitted or top-dose-only effect; inactive = flat fitted curve, though single readings scatter. No potency is given beside an inconclusive call; the fits are too rough.

Assay: qHTS for Inhibitors of human tyrosyl-DNA phosphodiesterase 1 (TDP1): qHTS in cells in absence of CPT; also: nearly all actives have a fitted effect of over 55% in size
Conditions: DT40 Tdp1-/- hTDP1 cells, no CPT, ATP luminescence, 48 h; activity change, negative = growth inhibition: at 46.2 µM (top of the series)
How it was run: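 Cells were dispensed at 400 per well, compounds added by pin tool, plates incubated ≥48 hr at 37 °C, then CellTiter-Glo added for 30 min at room temperature before luminescence reading. Line: DT40 Tdp1-/- complemented with hTDP1; camptothecin omitted.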
% is scaled to controls: 0 for no effect and ±100 for the full control effect; potency is read from the fitted curve at half-maximal effect; tags tell the direction and shape of the fitted curve.

| SMILES | Potency | activity change, negative = growth inhibition |
| --- | --- | --- |
| C=CCn1c(N)c(C(=O)NCCC2=CCCCC2)sc1=S | inconclusive [inhibitor, partial curve] | – |
| CCOc1cccc(NC(=O)c2ccc(S(=O)(=O)N(C)C)cc2)c1 | inconclusive [inhibitor, single point] | – |
| Cc1cccc(N2CCN(CC(=O)NCC3CCCCC3)CC2)c1C | inconclusive [inhibitor, single point] | – |
| O=C(CSc1nnc(-c2ccc(Cl)cc2)n1Cc1ccco1)c1cccs1 | active: 20.6 µM | – |
| CCOc1ccc(NS(=O)(=O)c2ccc3[nH]cc(C(=O)N4CCCC4)c(=O)c3c2)cc1 | inconclusive [inhibitor, single point] | – |
| C=C1N(c2ccccc2)C(=O)OC1(C)C | – | inactive: -1.09% |
| CC1(C)CC(=O)C(C=NCC(N)=O)=C(O)C1 | – | inactive: 4.14% |
| N#C/C(=C\c1cccc(O)c1)C(=O)N1CCCCC1 | inconclusive [inhibitor, single point] | – |
| CSc1ccc(/C=N/N2CCN(C)CC2)cc1 | – | inactive: -0.281% |
| COc1ccc(S(=O)(=O)N(Cc2nc(-c3ccccc3)no2)C2CCCCC2)cc1 | active: 9.2 µM | – |
| C/C(=N/NC(=O)Cc1ccccc1)c1ccc(C)s1 | – | inactive: -20.8% |
| CC(=O)Oc1ccc2c(c1)C(=O)CCCCCC(=O)O2 | – | inactive: -0.69% |
| Cc1ccc(NC(=O)NC2CCCCC2)c(C)c1 | active: 1.16 µM | – |
| CCN(CC)c1ccc(S(=O)(=O)N2CCOCC2)cc1NC(=O)CSc1nncn1C | – | inactive: -7% |
| NC(=NCCc1ccccc1)NS(=O)(=O)c1ccc(F)cc1 | inconclusive [inhibitor, partial curve] | – |
| Cc1csc(CN(C)C(=O)C2CCC(=O)N(Cc3ccc(Cl)cc3)C2)n1 (centres undefined) | – | inactive: 14.9% |
| Fc1ccc(Nc2nc(SCc3ccc(Cl)cc3)nc3ccccc23)cc1 | – | inactive: -102% |
| COc1ccc(C(C)=O)cc1Cn1c(C)c(C(=O)NCc2ccc3c(c2)OCO3)sc1=O | inconclusive [inhibitor, single point] | – |
| CSc1cccc(NC(=S)N(Cc2ccccc2)Cc2ccccn2)c1 | active: 20.6 µM | – |
| O=C(Nc1ccc(Oc2ccc(C(F)(F)F)cn2)c(Cl)c1)C1CC1 | inconclusive [inhibitor, partial curve] | – |
| COc1cccc(N2C(=O)CC(N3CCC(C(N)=O)(N4CCCCC4)CC3)C2=O)c1 (centres undefined) | inconclusive [inhibitor, single point] | – |
| CC(C)(C)c1cc(C(=S)N2CCCC2)cc(C(C)(C)C)c1O | inconclusive [inhibitor, single point] | – |
| O=S(=O)(NCC(c1ccco1)S(=O)(=O)c1ccccc1)c1cc(F)ccc1F (centres undefined) | inconclusive [inhibitor, single point] | – |
| Cc1cccc(-c2noc(-c3cccnc3NCc3ccccc3Cl)n2)c1 | – | inactive: -0.311% |
| Cc1nc(SC(C)C(=O)NCC2CCCO2)c2cc(-c3ccccc3)sc2n1 (centres undefined) | active: 14.6 µM | – |

| SMILES | Potency | activity change, negative = growth inhibition |
| --- | --- | --- |
| Cc1cccc(-c2cc(C(=O)Nc3cccnc3)c3ccccc3n2)c1 | inconclusive [inhibitor, single point] | – |
| Cc1cc2nc(-c3ccc(F)cc3)c(Cc3cccc(Cl)c3)n2c(C)c1Br | inconclusive [inhibitor, single point] | – |
| Cn1c(=O)c(=O)n(C)c2cc(S(=O)(=O)N3CCN(C4CCCCC4)CC3)ccc21 | – | inactive: -27.1% |
| CCOC(=O)C1CCN(C(=O)c2ccccc2Oc2ccccc2)CC1 | inconclusive [inhibitor, partial curve] | – |
| CN(C)CCCNc1oc(-c2ccc(Cl)cc2)nc1C#N | inconclusive [inhibitor, single point] | – |
| Cc1cc(C=C2C(=O)c3ccccc3C2=O)c(C)n1-c1ccc(Cl)cc1 | inconclusive [inhibitor, partial curve] | – |
| COc1ccc(NS(=O)(=O)c2ccc(C(=O)OC(C)C(=O)N3CCOCC3)cc2)cc1 (centres undefined) | – | inactive: -9.65% |
| O=C(NCCc1ccccc1)c1c(O)c2ccccc2[nH]c1=O | inconclusive [inhibitor, single point] | – |
| COc1cc2c(C(=O)O)c(C)n(C)c2c2ccccc12 | – | inactive: 25.6% |
| COc1cc2cc(CCCOC(=O)c3cc(OC)c(OC)c(OC)c3)oc(=O)c2cc1OC | inconclusive [inhibitor, single point] | – |
| COc1cc(C2CC(=O)N(c3ccc(C)c(Cl)c3)C3=C2C(=O)OC3)cc(OC)c1OC (centres undefined) | – | inactive: -12% |
| Cc1ccccc1C(C(=O)NC1CCCCC1)N(C(=O)c1ccccn1)c1cccnc1 (centres undefined) | – | inactive: 0.996% |
| O=c1/c(=C\c2ccc(F)cc2)sc2n1CCCN=2 | inconclusive [inhibitor, single point] | – |
| COc1cnc(-c2ccccn2)nc1NC(C)C | active: 0.0461 µM | – |
| O=[N+]([O-])c1cc(S(=O)(=O)NCCN2CCOCC2)ccc1Sc1nnnn1-c1ccccc1 | active: 6.51 µM | – |
| CCOc1ccc(CCNC(=O)c2ccc3c(=O)[nH]c4c(C(=O)NC(C)C)sc(=S)n4c3c2)cc1 | active: 13 µM | – |
| CCCCNC(=O)Nc1ccc2c(c1)N(C)C(=O)c1ccccc1S2 | active: 16.4 µM | – |
| CCN(CC)C(=O)CN1C(=O)COc2ccc(S(=O)(=O)N3CCOCC3)cc21 | – | inactive: 0.491% |
| COc1ccc2[nH]c3c(=O)n(CCN4CCOCC4)cnc3c2c1 | – | inactive: -14.6% |
| COc1cc2c(cc1OC)C(c1ccccc1Br)NC(=O)C2 (centres undefined) | – | inactive: 7.95% |
| CSc1nc(C)c2cc(C)oc2n1 | – | inactive: -16.6% |
| CN(CCOc1ccccc1)CCOc1ccccc1 | – | inactive: -17.7% |
| O=C(CSc1nc2c([nH]c3ccccc32)c(=O)n1-c1ccc(Cl)cc1)NC1CCCCC1 | active: 14.6 µM | – |
| CC(C)OCCCn1c(-c2ccc(Br)cc2)c[nH]c1=S | inconclusive [inhibitor, single point] | – |
| CO/N=C/c1ccc(Sc2ccccc2)c([N+](=O)[O-])c1 | inconclusive [inhibitor, full curve, poor fit] | – |

| SMILES | Potency | activity change, negative = growth inhibition |
| --- | --- | --- |
| Cc1ccc(N2CN(CCC3=CCCCC3)CNC2=S)cc1 | inconclusive [inhibitor, single point] | – |
| C=CCOc1ccccc1CN(CCc1ccccc1)C(=O)c1cccc(S(C)(=O)=O)c1 | inconclusive [inhibitor, single point] | – |
| O=[N+]([O-])c1ncccc1OCc1ccc(Cl)c(Cl)c1 | inconclusive [inhibitor, single point] | – |
| COc1ccc(N(C)S(=O)(=O)c2ccc3c(c2)NC(=O)CO3)c(OC)c1 | – | inactive: -17.4% |
| CN1C(=O)[C@H]2[C@@H](c3ccc(C(F)(F)F)cc3)N[C@]3(CCCN(CC4CCCCC4)C3=O)[C@H]2C1=O | active: 10.3 µM | – |
| CC(=O)[C@H]1CC[C@H]2[C@@H]3CC=C4C[C@@H](O)CC[C@]4(C)[C@H]3CC[C@]12C | inconclusive [inhibitor, partial curve] | – |
| Cn1cc(/C=C(\NC(=O)c2ccccc2Cl)C(=O)NCCN2CCOCC2)c2ccccc21 | – | inconclusive: 10.1% [inhibitor] |
| CCc1ccc(NC(=O)CSc2nc3cc(C(=O)OC)ccc3c(=O)n2CC2CCCO2)cc1 (centres undefined) | inconclusive [inhibitor, partial curve] | – |
| O=C(Nc1c(-c2ccc3c(c2)OCO3)[nH][nH]c1=O)c1cccc(C(F)(F)F)c1 | inconclusive [inhibitor, single point] | – |
| O=C(NCCOCc1ccccc1)C(c1ccccc1)c1ccccc1 | – | inconclusive: -37.1% [inhibitor] |
| O=C(c1ccc(CNS(=O)(=O)c2ccccc2)cc1)N1CCN(Cc2ccccc2)CC1 | inconclusive [inhibitor, partial curve] | – |
| Cc1ccc(Sc2ncccc2[N+](=O)[O-])cc1 | – | inactive: -4.42% |
| O=C(CN(Cc1cccs1)C(=O)CCC(=O)Nc1ccccn1)NCc1ccccc1 | inconclusive [inhibitor, single point] | – |
| CCOC(=O)c1ccc(-c2ccc3c(=O)c4ccccc4n(C)c3c2)cc1F | inconclusive [inhibitor, single point] | – |
| O=C(Cn1c2ccccc2c(=O)c2ccccc21)N/N=C/c1cc([N+](=O)[O-])ccc1N1CCCCC1 | inconclusive [inhibitor, single point] | – |
| COc1ccccc1NC(=O)c1c(C)cc(C)nc1SCC(=O)Nc1ccc(C)cc1 | inconclusive [inhibitor, single point] | – |
| CCCCOC(=O)/C(=C/c1cn(C)c2ccccc12)NC(=O)c1ccc(OC)cc1 | – | inactive: -22.3% |
| COc1ccc(NC(=O)Cn2nnc(C(=O)NCc3ccco3)c2N)c(OC)c1 | inconclusive [inhibitor, partial curve] | – |
| CC(=O)c1ccc(S(=O)(=O)N2CCN(C(=O)c3cccc(S(=O)(=O)N4CC(C)OC(C)C4)c3)CC2)cc1 (centres undefined) | – | inactive: -17.6% |
| COc1ccc(CC2c3cc(OC)c(OC)cc3CC[N+]2(C)CCC(=O)OCCCCCOC(=O)CC[N+]2(C)CCc3cc(OC)c(OC)cc3C2Cc2ccc(OC)c(OC)c2)cc1OC (centres undefined) | inconclusive [inhibitor, partial curve, poor fit] | – |
| O=C(CN1CCCCC1)Nc1ccc(C(F)(F)F)cc1Cl | inconclusive [inhibitor, single point] | – |
| CCC(C)N(C(=O)COC(=O)COc1c(C)cc(C)cc1C)C1CCS(=O)(=O)C1 (centres undefined) | – | inactive: 17.4% |
| Cc1cc(C)nc(N2C(=O)CC(C(=O)O)NC2=NCCc2c[nH]c3ccccc23)n1 (centres undefined) | – | inactive: -16.1% |
| COc1ncc2ncc(=O)n(CCC#N)c2n1 | – | inactive: -8.8% |
